From PubChem BioAssay AID1240 (Sanford-Burnham Center for Chemical Genomics, 2008)
Screen size: about 50,000 compounds; about 800 (1.6%) showed an effect of 50% or more. Some of the results follow.

biological target: Bcl-2-like protein 10 (Homo sapiens) (UniProt Q9HD36); test: TR3 peptide-Bcl-B binding displacers, biochemical primary FP assay, phenotype converters (AID 1240); details: GST-Bcl-B / FITC-TR3 peptide fluorescence polarization; stronger effect = higher value; compound at 3.75 mg/L;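 note: 0% = Bcl-B with tracer peptide and DMSO and 100% = tracer peptide lacking Bcl-B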
UniProt Q9HD36, sequence (Q9HD36 whole entry, looked up): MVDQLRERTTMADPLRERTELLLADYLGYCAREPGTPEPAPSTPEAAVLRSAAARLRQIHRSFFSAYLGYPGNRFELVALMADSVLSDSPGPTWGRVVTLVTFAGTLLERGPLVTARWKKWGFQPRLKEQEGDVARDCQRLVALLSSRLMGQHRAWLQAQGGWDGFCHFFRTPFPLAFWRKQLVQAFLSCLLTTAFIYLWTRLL

Row | Structure (SMILES) | displacement
1 | O=C(O)CSc1nc2ccc(NC(=O)c3ccccc3)cc2s1 | 2.9%
2 | C=CCN1C(=O)/C(=C\c2ccco2)C(C(=O)OC)=C1C | 65.4%
3 | COc1ccc([N+](=O)[O-])cc1-c1ccc(/C=C(\C#N)c2nc3ccc(C)cc3[nH]2)o1 | -8.5%
4 | CCOC(=O)c1c(NC(=O)Cn2cnc([N+](=O)[O-])n2)sc2c1CCC2 | 9.4%
5 | CCOCCCNc1cc(C)c(C#N)c2nc3ccccc3n12 | -5.3%
6 | Clc1cccc(-c2ncnn2-c2cccc(Cl)c2)c1 | 10.5%
7 | COc1ccc(CC(=O)Nc2cccc(NC(=O)Cc3ccc(OC)cc3)c2)cc1 | 2%
8 | CCOC(=O)C1=C(C)N=c2s/c(=C\c3ccc(N(C)C)cc3)c(=O)n2C1c1ccc(OC)c(OC)c1 (centres undefined) | -38.5%
9 | O=[N+]([O-])c1cc(-c2nnc(-c3ccccc3)o2)cc([N+](=O)[O-])c1 | 5.9%
10 | Cc1c(C(=O)Nc2ccc(S(=O)(=O)Nc3nccs3)cc2)cccc1[N+](=O)[O-] | -5%
11 | O=C(N/N=C/c1ccc(-c2ccc(Cl)cc2)o1)c1ccccc1 | 9%
12 | O=C(NCC1COc2ccccc2O1)C(c1ccccc1)c1ccccc1 (centres undefined) | 6%
13 | N#Cc1c(-c2cc(Br)cs2)c2c(=O)[nH]c(=O)[nH]c2[nH]c1=O | 5%
14 | O=C(CN(c1ccc(F)cc1)S(=O)(=O)c1ccccc1)Nc1cccc(Br)c1 | 1%
15 | CCOc1cccc(/C=N/NC(=O)COc2ccccc2[N+](=O)[O-])c1O | 3.7%
16 | CCOc1ccc(NC(=O)c2ccc(S(=O)(=O)N(C)C)cc2)c([N+](=O)[O-])c1 | 13.2%
17 | O=C(CN(c1ccccc1)S(=O)(=O)c1ccccc1[N+](=O)[O-])Nc1ccccc1 | 11.8%
18 | CCOC(=O)c1ccc(NC(=O)c2ccc(C(=O)Nc3ccc(C(=O)OCC)cc3)cc2)cc1 | 3.8%
19 | O=C1C(Cl)=C(NCc2ccccc2)C(=O)N1c1ccccc1 | 13.3%
20 | COc1cccc(NC2=C(Cl)C(=O)N(c3cccc(Cl)c3Cl)C2=O)c1 | 13.3%
21 | Cc1onc(-c2ccccc2)c1C(=O)NCc1ccccc1 | -3.4%
22 | COc1cc(NC(=O)COc2ccc(C(C)(C)C)cc2)c(C(=O)O)cc1OC | -19.8%

Row | Structure (SMILES) | displacement
23 | COc1ccc(C(=O)c2coc3ccc(O)cc23)cc1 | 5.5%
24 | CCOc1ccccc1NC(=O)c1c(NC(=O)c2ccccc2F)sc2c1CCCCC2 | 4.5%
25 | O=C(Nc1ccccc1)c1cccc(Cl)c1 | -3.3%
26 | O=C(NCC1CCCO1)c1cnn2c1NC(c1ccc(Br)cc1)CC2C(F)(F)F (centres undefined) | 6.5%
27 | Cc1ccc2c(c1)C(c1ccccc1Cl)CC(=O)N2 (centres undefined) | -3.4%
28 | CC(C)CCCC(C)CCOC(=O)CN1CCOCC1 (centres undefined) | -10.6%
29 | CCOC(=O)c1ccccc1NS(=O)(=O)c1ccc(OC)cc1 | 2.7%
30 | CC(C)CN(CC(C)C)S(=O)(=O)c1ccc(C(=O)N2CCOCC2)cc1 | 11.2%
31 | COC(=O)c1ccc(Oc2ccc(OC(C)=O)cc2)cc1 | 2.7%
32 | COc1ccccc1NC(=O)CSc1nc2ccc(N3C(=O)c4ccccc4C3=O)cc2s1 | 84.2%
33 | CCOC(=O)c1c(NC(=O)c2cccc(C)c2)sc(C(=O)Nc2ccccc2F)c1C | -7.4%
34 | CC(Oc1cccc(Cl)c1)C(=O)N1CCN(Cc2ccccc2)CC1 (centres undefined) | -4.1%
35 | CC1=C/C(=N\N=C2\NC(=O)C(CC(=O)Nc3ccc(C(=O)O)cc3)S2)CC(C)(C)C1 (centres undefined) | 35%
36 | O=S(=O)(Nc1ccc(Oc2ccccc2)cc1)c1ccc2ccccc2c1 | 12.6%
37 | COc1ccccc1-n1c(C=C2C(=O)N(Cc3ccccc3)c3ccccc32)nc2ccccc2c1=O | -10.8%
38 | CC(C)c1ccc(NS(=O)(=O)c2ccc([N+](=O)[O-])cc2)cc1 | -3.8%
39 | O=C(Nc1ccccc1C(F)(F)F)c1ccc2ccccc2c1 | -0.5%
40 | CCC(CO)N=Cc1c(O)n(-c2c(Cl)cccc2Cl)c2ccccc12 (centres undefined) | -12.6%
41 | CCOC(=O)c1c(NC(=O)c2ccc(Cl)c(Cl)c2)sc(C(=O)Nc2ccccc2)c1C | 25%
42 | Cc1c(C(=O)Nc2ccc3oc(-c4ccncc4)nc3c2)cccc1[N+](=O)[O-] | -1.3%
43 | CCOC(=O)C1=CN(c2ccc(OCC)cc2)C=C(C(=O)OCC)C1c1cccs1 | -4.7%
44 | COc1cccc(C2=NN(C(=O)c3ccccn3)C(O)(C(F)(F)F)C2)c1 (centres undefined) | -17.2%

Row | Structure (SMILES) | displacement
45 | Cc1ccc(NC(=O)CCC2CCCC2)nc1 | 12.2%
46 | COCCNC(=O)Nc1ccc2nccnc2c1 | 8.7%
47 | CCSC1C(C)=C(C)C(=O)N1C(C)(C)c1cc(Cl)cc(Cl)c1 (centres undefined) | 21.2%
48 | O=C(Nc1nc2ccccc2[nH]1)C1CC1c1ccccc1 (centres undefined) | -3.3%
49 | COC(=O)c1ccc(/C=N/NC(=O)C2CC(=O)N(c3ccc(Cl)cc3)C2)cc1 (centres undefined) | -5.6%
50 | NCCC(=O)N1c2ccccc2Sc2ccc(Cl)cc21 | -6.5%
51 | Cc1ccc(N2C(=O)NC(=O)/C(=C\c3cccc(C)c3)C2=O)cc1 | -1.5%
52 | COc1cc(C=C2C(=O)OC(C)(C)OC2=O)cc(Br)c1O | 5.9%
53 | COc1cc(CN2CCN(C(=O)c3ccc([N+](=O)[O-])cc3)CC2)cc(OC)c1O | -9.1%
54 | CCCCN(CCCC)C(=O)c1cccc([N+](=O)[O-])c1 | -17.8%
55 | COc1ccc(Nc2ccc([N+](=O)[O-])cc2C(=O)O)cc1 | -4.9%
56 | COc1ccc(Br)cc1/C=C/C(=O)NCc1ccccc1 | -7.7%
57 | O=C(Nc1ccc(Cl)cc1)c1ccc(Br)o1 | -0.6%
58 | Cc1ccc(S(=O)(=O)N/N=C/c2[nH]c3ccccc3c2Cl)cc1 | 14%
59 | CN1C(=O)c2ccc(NC(=O)c3ccc(Cl)cc3Cl)cc2C1=O | -12.4%
60 | CCCCCCCCNc1nc(OC)nc(OC)n1 | 1.4%
61 | COc1ccc(C(=O)Nc2ccccc2)cc1NC(=O)C(C)Oc1ccccc1 (centres undefined) | 2.3%
62 | O=C(O)CCCC(=O)Nc1nc(-c2ccc(Cl)c(Cl)c2)cs1 | -12.3%
63 | COc1cc(OC)c(OC)cc1C=NNC(=O)Cn1nnc2ccccc21 | -10.1%
64 | O=C(NCCCn1ccnc1)C(=O)Nc1ccc(F)cc1 | 10.4%
65 | COc1ccc(CNC(=O)COc2ccc(OC)cc2)cc1 | -12.1%
66 | N#CCCn1cc(C=O)c(-c2ccc(-c3ccccc3)cc2)n1 | 23.1%

Row | Structure (SMILES) | displacement
67 | Brc1ccccc1C=NN1CCN(Cc2ccccc2)CC1 | 5.6%
68 | CCN1C(=O)C(=Cc2ccc(OC)cc2OC)C(=O)NC1=S | 10.3%
69 | CCc1ccc(C2C(C(=O)OC3CCCC3)=C(C)NC3=C2C(=O)CCC3)cc1 (centres undefined) | 5.9%
70 | COc1ccc(-c2cc(C(=O)Nc3ccccc3OC)c3ccccc3n2)cc1 | 14.2%
71 | O=C(Cc1ccccc1[N+](=O)[O-])N1CCN(c2ccccc2)CC1 | 1.6%
72 | CC1(C)CC(=O)C2=C(C1)Nc1ccccc1N(C(=S)Nc1ccccc1)C2c1cccc([N+](=O)[O-])c1 (centres undefined) | -6.6%
73 | Cn1cnc2cc(NC(=O)c3ccccc3)ccc21 | -4.6%
74 | CC(/C=C1\SC(=S)N(c2cccc(C(F)(F)F)c2)C1=O)=C\c1ccccc1 | 2.4%
75 | COc1ccc(S(=O)(=O)NCC2CCCO2)cc1C(=O)O (centres undefined) | 11.2%
76 | O=C(Cc1ccccc1)N1N=C(c2ccc(Br)cc2)CC1(O)C(F)(F)F (centres undefined) | 1.1%
77 | O=C(CC1(O)C(=O)Nc2ccccc21)c1cccc2ccccc12 (centres undefined) | 5.6%
78 | COC(=O)c1cc(C(=O)Nc2ccc(F)cc2)cc([N+](=O)[O-])c1 | 1.6%
79 | O=C(N/N=C/c1cc(O)ccc1[N+](=O)[O-])c1ccccn1 | 5.4%
80 | O=C1NC(=O)N(c2ccccc2Cl)C(=O)/C1=C\C=C\c1ccco1 | 15.6%
81 | O=C(CNC(=O)c1ccccc1)c1ccc(Cl)cc1 | 2.5%
82 | COc1cccc(OCCOc2ccc(/C=C3/SC(=S)NC3=O)cc2OC)c1 | 10.3%
83 | Cc1cc(C(=O)NC(C)C23CC4CC(CC(C4)C2)C3)c(C)o1 (centres undefined) | -4.9%
84 | CC1=NN(C(=O)CCc2ccccc2)C(O)(c2ccncc2)C1 (centres undefined) | -20%
85 | O=C(NCCCO)/C(=C\c1ccco1)NC(=O)c1ccco1 | 14.9%
86 | c1ccc(OCCN2CCCCC2)cc1 | -11.5%
87 | CCc1ccc(-c2nc3cc(NC(=O)COc4ccccc4[N+](=O)[O-])ccc3o2)cc1 | 4.1%
88 | N#Cc1c(N)[nH]c(=S)c(C#N)c1-c1ccc(Br)cc1 | 3.2%

Row | Structure (SMILES) | displacement
89 | Cc1ccc(C(=O)/C=C/c2cn(Cc3ccccc3)c3ccccc23)cc1 | 11.9%
90 | O=C(O)c1cnn2c1NC(c1cccs1)CC2C(F)(F)F (centres undefined) | 0%
91 | CCOc1ccc(-c2nc3cc(NC(=O)c4ccc(Br)o4)ccc3o2)cc1 | -7%
92 | O=C(N/N=C/c1ccccc1O)C1CC(=O)N(c2ccc(Br)cc2)C1 (centres undefined) | -27.4%
93 | O=C(c1cccc(F)c1)N1CCN(C2CCCCCC2)CC1 | -13.9%
94 | Cc1ccc(-c2cc(-c3cc(C)ccc3O)[nH]n2)cc1 | -5.9%
95 | COc1ccc(C2=C(Nc3ccc4oc5ccccc5c4c3)c3ccccc3C2=O)cc1 | 14.6%
96 | CC(C)c1ccc(C=Nc2ccc3[nH]c(=O)[nH]c3c2)cc1 | -3.8%
97 | COc1ccc(/C=C2/C(=O)NC(=O)N(c3ccc(C(C)C)cc3)C2=O)cc1 | -114%
98 | COc1ccc(C(=O)NCCOc2ccccc2F)cc1OC | 7.6%
99 | O=C(O)CCC(=O)N1N=C(c2ccc(Br)cc2)CC1c1cccc([N+](=O)[O-])c1 (centres undefined) | 15.9%
100 | CCC/C(O)=C1\C(=O)CC(C)(C)CC1=Nc1ccc([N+](=O)[O-])cc1 | 3.2%
101 | CCOc1ccc(C(=O)N2CC(C)OC(C)C2)cc1OCC (centres undefined) | 11.4%
102 | O=C(c1ccccc1)c1coc2c1C(=O)c1ccccc1C2=O | -0.4%
103 | O=C(O)C1C(C(=O)Nc2ccccc2)C2C=CC1C21CC1 (centres undefined) | -18%
104 | Cc1nc2cc(-c3ccc(Br)cc3)[nH]n2c(=O)c1C | -6.7%
105 | N#C/C(=C/c1cccc2ccccc12)c1ccc([N+](=O)[O-])cc1 | 0.8%
106 | c1cncc(CNc2cccc(-c3nc4ccccc4s3)c2)c1 | 8.7%
107 | O=C(NC(=S)NNc1ccccc1)c1cc2ccccc2oc1=O | -3.6%
108 | Cc1cc(-n2cc(I)c(=O)[nH]c2=O)nc(-c2ccccc2)n1 | -50%
109 | Cc1cc(OCC(=O)Nc2cc([N+](=O)[O-])ccc2Cl)cc(C)c1Cl | -0.5%
